Laboratory results: publication PMC4336329 (PLoS ONE, 2015)
The campaign covered roughly 310,000 compounds. About 2,200 (0.71%) showed an effect of 50% or more. Effects have a minus sign here. Some of the results follow.

Each molecule was assayed against human ether-à-go-go-related gene (hERG) potassium channel (human, UniProt Q12809) (assay: primary screen, population patch clamp on CHO cells stably expressing hERG).
human ether-à-go-go-related gene (hERG) potassium channel, sequence (Q12809 whole entry, looked up): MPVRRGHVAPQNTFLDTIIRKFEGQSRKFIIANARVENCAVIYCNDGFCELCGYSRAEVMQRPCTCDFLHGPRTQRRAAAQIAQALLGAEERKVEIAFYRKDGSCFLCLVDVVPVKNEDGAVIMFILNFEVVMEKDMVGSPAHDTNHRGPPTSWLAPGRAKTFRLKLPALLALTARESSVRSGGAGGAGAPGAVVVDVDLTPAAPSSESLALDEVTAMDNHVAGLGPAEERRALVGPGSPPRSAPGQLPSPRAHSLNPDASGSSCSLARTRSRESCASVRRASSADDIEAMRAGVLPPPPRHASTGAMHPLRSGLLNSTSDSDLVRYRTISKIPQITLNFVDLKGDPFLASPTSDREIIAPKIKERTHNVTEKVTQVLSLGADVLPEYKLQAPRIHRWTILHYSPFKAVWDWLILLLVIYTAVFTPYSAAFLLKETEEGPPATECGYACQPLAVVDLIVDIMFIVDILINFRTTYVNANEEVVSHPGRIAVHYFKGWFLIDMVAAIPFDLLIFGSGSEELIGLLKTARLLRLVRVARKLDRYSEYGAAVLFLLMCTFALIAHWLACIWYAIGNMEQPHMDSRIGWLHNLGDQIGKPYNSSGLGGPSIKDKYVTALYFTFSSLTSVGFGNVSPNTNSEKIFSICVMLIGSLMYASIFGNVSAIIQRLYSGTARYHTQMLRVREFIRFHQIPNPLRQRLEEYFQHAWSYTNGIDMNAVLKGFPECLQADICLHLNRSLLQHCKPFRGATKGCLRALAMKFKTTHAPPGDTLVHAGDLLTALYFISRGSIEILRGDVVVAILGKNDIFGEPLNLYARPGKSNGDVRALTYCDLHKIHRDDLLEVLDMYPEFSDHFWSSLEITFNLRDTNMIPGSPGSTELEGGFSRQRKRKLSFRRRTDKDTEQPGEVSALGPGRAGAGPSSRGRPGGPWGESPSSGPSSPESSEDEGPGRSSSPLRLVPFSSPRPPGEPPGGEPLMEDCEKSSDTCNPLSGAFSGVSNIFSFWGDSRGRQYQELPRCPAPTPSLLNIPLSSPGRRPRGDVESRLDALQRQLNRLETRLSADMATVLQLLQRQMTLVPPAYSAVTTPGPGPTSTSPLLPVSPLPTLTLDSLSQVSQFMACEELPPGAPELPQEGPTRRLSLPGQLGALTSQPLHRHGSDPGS

In order of falling “hERG current change (%, negative = inhibition) at 1uM” value:
1. O=C(Cc1ccccc1)NCC(=O)OCC(=O)c1ccc([N+](=O)[O-])cc1  21.7%
2. CC(C)c1onc(C(=O)Nc2ccc3c(c2)OCO3)c1[N+](=O)[O-]  20.8%
3. Cc1cccc(N2C(=O)N3[C@H](c4ccc(Br)cc4)[C@@H]4C(=O)N(C(C)(C)C)C(=O)[C@@H]4[C@]3(Cc3ccc(Cl)cc3)C2=O)c1  19.1%
4. O=C(Nc1ccc(Oc2ccccc2)cc1)N[C@@H](Cc1ccccc1)C(=O)O  18.7%
5. O=C(NCCc1csc(-c2cccnc2)n1)c1ccco1  18.2%
6. Cc1ccnc(SCCn2c(N3CCN(C)CC3)nc3c2c(=O)n(C)c(=O)n3C)n1  18.1%
7. CCc1cc2c(-c3ccccc3)cc(=O)oc2cc1OC(C)C(=O)O (centres unmarked)  17.3%
8. CC/C(=C/c1ccccc1)c1cccc2[nH]c3c(OC)cccc3c12  16.9%
9. O=C(Nc1cccc(C(F)(F)F)c1)c1cncs1  15.5%
10. CC(=O)/C(=N\Nc1ccc(Cl)cc1Cl)Sc1cccc2cccnc12  15.2%
11. O=c1[nH]c(NC2CCCCC2)nnc1Cc1ccccc1  15%
12. CCOc1ccccc1N(C(=O)c1snc(C(N)=O)c1N)C(CC)C(=O)NC1CCCC1 (centres unmarked)  15%
13. Clc1nc2ccccc2cc1-c1nnn(-c2ccccc2)n1  14%
14. Cc1cc(-c2ccc(C)c(S(=O)(=O)NCCCN3CCN(c4ccccc4)CC3)c2)on1  13.4%
15. CN(C)P(=S)(Nc1ccccc1)C(Cl)(Cl)Cl (centres unmarked)  13.4%
16. C=CCN1C(=O)C(O)(CC(=O)c2ccc(OC)cc2OC)c2cc(Br)ccc21 (centres unmarked)  12.8%
17. COc1ccc2nc(NC(=O)Cc3cccs3)sc2c1  12.4%
18. O=C(CSc1nnc(NC(=O)CN2CCOCC2)s1)Nc1ccccc1  12.4%
19. Cc1cc(C)nc(NS(=O)(=O)c2ccc(NC(=O)Cc3ccccc3)cc2)n1  12.1%
20. CC(C)(C)Nc1c([N+](=O)[O-])c(=O)sc2ccccc12  12.1%
21. CC1CCCC(C)N1S(=O)(=O)c1ccc(S(=O)(=O)N2CCOCC2)cc1 (centres unmarked)  12%
22. COC(=O)c1c(C#N)c(N)nc2c1CCCC2  12%
23. COc1ccc(N=C2C(=Nc3ccc(OC)cc3)N(c3ccc(OC)cc3)C(=S)N2C)cc1  12%
24. Oc1ccc(Br)cc1/C=N/NC(=S)NCCc1ccccc1  11.7%
25. CCc1ccc(/C=C2\SC(=S)N(CCC(=O)Nc3cc(C)on3)C2=O)cc1  11.3%
26. NC(=O)C1CCN(C(=O)COc2ccc3c4c(c(=O)oc3c2)CCC4)CC1  11.2%
27. O=C1OC(c2ccccc2)=C/C1=C/c1cccs1  10.6%
28. COc1ccc(NC(=O)CSc2ccc(-c3cccnc3)nn2)cc1  10.3%
29. C#CCSc1nncn1C(=O)/C=C/c1ccccc1  9.8%
30. Cc1ccc(C)c(N2CCN(C(=O)c3ccc4nsnc4c3)CC2)c1  9.76%
31. O=C(Nc1ccc(S(=O)(=O)N2CCc3ccccc32)cc1)C(F)(F)F  9.42%
32. COc1ccc2nc(N/C(N)=N/S(C)(=O)=O)nc(C)c2c1  9.32%
33. CCC1(C)CC(=O)N(c2ccc(C(=O)O)c(O)c2)C1=O (centres unmarked)  9.26%
34. O=C(/C=C/c1ccc(F)cc1)N1CCc2ccccc2C1  9.18%
35. CCOC(=O)CC1C(=O)NCCN1Cc1cccs1 (centres unmarked)  9.17%
36. C/C(=N\NC(=O)c1sccc1-n1cccc1)c1cccs1  9.02%
37. CSc1ccc(C2C(C#N)=C(N)Oc3cc4c(cc32)OCO4)cc1 (centres unmarked)  8.84%
38. CC(=O)c1ccc(S(=O)(=O)N(CCCO)Cc2cc3cc(C)ccc3[nH]c2=O)cc1  8.77%
39. CNC(=O)c1cc(C(=O)c2ccc(Cl)cc2)c[nH]1  8.7%
40. CC(=O)c1c(C)[nH]c(C(=O)CN2CCN(S(=O)(=O)c3ccc(C(C)C)cc3)CC2)c1C  8.2%
41. CC1Sc2ccc(S(=O)(=O)N3CCC(C(=O)N4CCN(C)CC4)CC3)cc2NC1=O (centres unmarked)  8.11%
42. COCCN(CC1CCCN(C2Cc3ccccc3C2)C1)C(=O)CSC (centres unmarked)  7.99%
43. CCCCC(=O)Nc1cnc(NC(=O)c2cccs2)cc1C  7.98%
44. CCCCCCCOC1(c2ccccc2)OC(=O)c2ccccc21 (centres unmarked)  7.94%
45. CC(/C=C/c1ccco1)=N\NC(=O)CNc1cccc(C)c1  7.79%
46. COc1ccc(OCc2nc3c4cc(OC)c(OC)cc4nc(=S)n3[nH]2)cc1  7.77%
47. CC(C)[C@@H](C(=O)OCC(=O)Nc1ccc2c(c1)OCO2)N1C(=O)c2ccccc2C1=O  7.75%
48. COc1ccc(CC(=O)OCC(=O)N2CCCc3ccccc32)cc1  7.67%
49. O=C(CNC(=O)c1ccccc1)NCCO  7.56%
50. O=C(NC1CCCC1)C(c1ccc(N2CCOCC2)cc1)N(Cc1ccco1)C(=O)c1ccco1 (centres unmarked)  7.2%
51. O=C(NCCc1ccc(Cl)cc1)C1CC(=O)N(C2CCCCC2)C1 (centres unmarked)  7.17%
52. N/C(=N\c1nc2c(c(=O)[nH]1)CCCC2)Nc1ccc(Oc2ccccc2)cc1  7.09%
53. Cc1ccccc1N1CCN(C2CCCN(C(=O)CCN3CCCO3)C2)CC1 (centres unmarked)  7.02%
54. CCOCCOC(=O)c1[nH]c2c(c1C)C(=O)CC(c1ccc(N(C)C)cc1)C2 (centres unmarked)  6.95%
55. O=S(=O)(CC(CN1CCCCC1)N1CCCCC1)c1ccccc1 (centres unmarked)  6.73%
56. O=C(CCc1ccccc1)N1CCN(c2ccc(F)cc2)CC1  6.16%
57. COc1ccc(CCC(=O)Nc2nnc(C)s2)cc1  5.82%
58. COCCNC(=O)CSc1ccc(-c2nc3ccccc3[nH]2)cn1  5.48%
59. O=S(=O)(Cc1noc(-c2ccc(OC(F)(F)F)cc2)n1)c1ccc(F)cc1  5.35%
60. O=C(O)c1cc(/C=C/c2ccc(N3CCOCC3)c([N+](=O)[O-])c2)nc2ccccc12  5.33%
61. CC(=O)NC(CC(=O)NNC(=O)c1cc2ccccc2cc1O)c1ccccc1 (centres unmarked)  5.27%
62. COc1ccc(-n2c(Cc3cccs3)nnc2SCC(=O)Nc2ccc3c(c2)OCCO3)cc1  4.87%
63. COC(=O)c1[nH]c(C)c(/C(O)=C2\C(=O)C(=O)N(CCN3CCOCC3)C2c2cccs2)c1C (centres unmarked)  4.55%
64. COC(=O)c1ccc(SCC(=O)NCc2ccccc2)c([N+](=O)[O-])c1  4.07%
65. NC(=O)CSC1=Nc2ccccc2C2=NC(c3ccccc3)C(=O)N12 (centres unmarked)  3.8%
66. C1=C(c2ccccc2)CCNC1.Cl  2.71%
67. O=C(/C=C/c1ccccc1)N/C(=C/c1ccccc1)C(=O)NCCCO  2.59%
68. CCOc1ccc(NC(=O)c2nsc(Cl)c2Cl)cc1  2.21%
69. CSc1ccc(S(=O)(=O)Nc2ccc3c(c2)NC(=O)CC3)cc1  2.21%
70. CCC(Oc1ccccc1)C(=O)N1CCN(S(=O)(=O)c2ccccc2)CC1 (centres unmarked)  2.04%
71. COc1ccc(S(=O)(=O)N=C2C=C(C)C(=O)C(C)=C2)cc1  1.51%
72. CC(=O)c1ccc(NC(=O)CC23CC4CC(C2)CC(n2nnc(C)n2)(C4)C3)cc1  0.832%
73. Cc1cc([N+](=O)[O-])c(NCCCCCCO)c([N+](=O)[O-])c1  0.379%
74. Cc1cc(Oc2cc(NN3CCCCC3)c([N+](=O)[O-])cc2[N+](=O)[O-])ccc1[N+](=O)[O-]  -0.65%
75. COc1ccc(OCCSc2nnc(-c3ccoc3C)n2C)cc1  -0.684%
76. COc1cc(NC(=O)c2cc(OC)c(OC)c(OC)c2)ccc1NC(=O)c1cccs1  -0.934%
77. Cc1ccc(S(=O)(=O)N2CCN(C)CC2)cc1-c1nnc2c3ccccc3c(C)nn12  -1.83%
78. CC[C@@H]1[C@H]2CCCC(=O)N3CC[C@@H](C[C@@H]1OC(=O)Nc1ccccc1)[C@@H]23  -2.93%
79. O=C(NCCCN1CCN(CCCNC(=O)c2ccc3c(c2)OCO3)CC1)c1ccc2c(c1)OCO2  -2.97%
80. Cc1ccc(NC(=O)COC(=O)CCC(=O)c2cccs2)cc1S(=O)(=O)N1CCOCC1  -6.28%
81. CC(C)(C)OC(=O)COc1cc(O)c2c(=O)cc(-c3ccccc3)oc2c1  -8.48%
82. CC(NC(=S)Nc1ccccc1Cl)C(c1ccccc1)N1CCOCC1 (centres unmarked)  -9.49%
83. CCN(C(=O)c1cnc(NC(C)C)cc1C(F)(F)F)c1ccc(Cl)cc1  -10.7%
84. Cc1cc2oc(=O)cc(CN3CCN(Cc4ccccc4)CC3)c2cc1O  -12.5%
85. COc1ccc(-c2cc(C)no2)cc1S(=O)(=O)NCC1CCN(Cc2cc(C)ccc2C)CC1  -14.7%
86. Clc1ccc2c(c1)C(c1ccccc1Cl)=NCc1nnc(N3CCN(CCOc4ccccc4)CC3)n1-2.O=C(O)/C=C/C(=O)O  -50.8%
